The list shows a part of the results. These are further read-outs of the screen, such as a control signal, another cell line or another target. No call is given for them. Compounds called inactive in the main read-out are mostly missing here.
target: Chromobox protein homolog 7 (Homo sapiens) (UniProt O95931); assay: blockers of CBX7 binding to H3K27me3 peptide – biochemical, AlphaScreen, primary screen (AID 1224903); details: AlphaScreen His6-CBX7 / biotin-H3K27me3 peptide binding; measured here: z-score of CBX7 signal; stronger effect = lower value
Chain of UniProt O95931 (O95931 whole entry, looked up): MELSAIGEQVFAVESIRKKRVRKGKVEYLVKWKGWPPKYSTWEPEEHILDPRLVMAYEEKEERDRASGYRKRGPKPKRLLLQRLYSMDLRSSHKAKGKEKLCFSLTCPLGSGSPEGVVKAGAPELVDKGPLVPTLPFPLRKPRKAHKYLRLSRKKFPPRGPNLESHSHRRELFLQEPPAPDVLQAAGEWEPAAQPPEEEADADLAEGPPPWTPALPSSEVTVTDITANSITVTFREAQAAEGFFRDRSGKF

Structure (SMILES)	z-score
CCN(CC)S(=O)(=O)c1ccc(C(=O)Nc2nnc(C)o2)cc1	-23.8
O=C(NCCCn1ccnc1)c1cc(-c2ccco2)on1	-15.4
COc1ccc(C(NC(=O)CCc2ccccc2)c2ccc3cccnc3c2O)cc1OC (stereo not drawn)	-3.38
COc1ccc(N2CCN(C(c3cccs3)C(C)NS(=O)(=O)c3ccccc3)CC2)cc1 (stereo not drawn)	-6.74
Cc1ccccc1-c1nc(CS(=O)(=O)CC(=O)N2CCC(Cc3ccccc3)CC2)c(C)o1	-13.3
COc1ccc(-c2nc(-c3ccccc3)c(-c3ccc(Oc4ccccc4)cc3)[nH]2)cc1	-2.08
COC(=O)c1c[nH]n2c(NC3CCCCC3)c(-c3ccc(OC)cc3)nc12	-13.5
Cc1cccc(Nc2nc(-c3sc(C)nc3C)cs2)c1	-11
CCC1CCCCN1S(=O)(=O)c1ccc(C(=O)Nc2nnc(C)o2)cc1 (stereo not drawn)	-23.6
CCc1nnc(NC(=O)c2ccc(S(=O)(=O)N3CCCc4ccccc43)cc2)o1	-10.5
CCOC(=O)c1cnc2c(C)cc(C)cc2c1Nc1ccc(N(C)C)cc1	-6.48
COc1ccccc1N1CCN(Cc2cc(Cl)c3cccnc3c2O)CC1	-35.2
COCc1nnc(NC(=O)c2ccc(S(=O)(=O)N(CC(C)C)CC(C)C)cc2)o1	-1.22
Cc1nnc(NC(=O)c2ccc(S(=O)(=O)N(C)Cc3ccccc3)cc2)o1	-25.8
Cc1ccc(-n2ncc3c(NCc4ccccn4)ncnc32)c(C)c1	-0.877
CCC1CCCCN1S(=O)(=O)c1ccc(C(=O)Nc2nnc(-c3ccc(Cl)s3)o2)cc1 (stereo not drawn)	-6.97
Cc1cc(N2CCCCC2)nc2ccc(NC(=O)CCC(=O)N3CCCC(C)C3)cc12 (stereo not drawn)	-22.8
Cc1ccc(Nc2c(-c3ccccn3)nc3cc(C)ccn23)cc1	-21.6
O=C(CC(C(=O)N1CCc2ccccc21)n1ccnc1)NC(c1ccccc1)c1ccccc1 (stereo not drawn)	-13.7
Cc1ccc2oc(-c3cccc(NC(=O)c4ncn[nH]4)c3)nc2c1	-16
O=C(Nc1nnc(-c2ccccc2Cl)o1)c1ccc(S(=O)(=O)N2CCOCC2)cc1	-4.17
CC1CN(S(=O)(=O)c2ccc(C(=O)Nc3nc(-c4ccccn4)cs3)cc2)CC(C)O1 (stereo not drawn)	-23.8
COC(=O)c1c[nH]n2c(NC3CCCC3)c(-c3cccc(OC)c3)nc12	-0.694
CC(C)n1cnc2cc(NCc3ccc(Cl)cc3)ccc21	-17.1
COc1cccc(-c2nnc(NC(=O)c3ccc(S(=O)(=O)N(C)C)cc3)o2)c1	-13
Fc1ccc(-c2cc(C(F)(F)F)n3ncnc3n2)cc1	-6.24
Cc1cccc(C)c1Nc1c(-c2ccccn2)nc2ncccn12	-0.986

Structure (SMILES)	z-score
O=C(Nc1nnc(-c2ccc(Cl)s2)o1)c1ccc(S(=O)(=O)N2CCCC2)cc1	-10.8
COc1cccc(Nc2nc(-c3ccccc3F)nc3ccccc23)c1	-0.882
CCCCN(C)S(=O)(=O)c1ccc(C(=O)Nc2nc(-c3ccccn3)cs2)cc1	-1.07
Cc1cccc(OCc2nc(C#N)c(NCc3ccc4c(c3)OCO4)o2)c1	-10.3
COc1ccc(C)cc1S(=O)(=O)NCCc1c(C)[nH]c2ccc(C)cc12	-0.593
Cc1nnc(NC(=O)c2ccc(S(=O)(=O)N3CCC(C)CC3)cc2)o1	-1.29
Cc1c(C)n(CC(O)CNc2ccccc2)c2ccccc12 (stereo not drawn)	-4.91
CC(C)n1cnc2cc(NCc3ccccn3)ccc21	-22.2
c1ccc(CN2CCC(NCCc3ccc4c(c3)OCO4)CC2)cc1	-1.45
CCOC(=O)c1cnc2ccc(C)cc2c1Nc1ccc(N(CC)CC)cc1	-6.3
Fc1ccc(-c2csc(Nc3ccc4c(c3)OCO4)n2)cc1	-6.8
Cc1ccc2nc(-c3ccccn3)c(Nc3ccccc3)n2c1	-19.2
COCCN(CCOC)S(=O)(=O)c1ccc(C(=O)Nc2nnc(-c3ccc(F)cc3)o2)cc1	-4.29
CC1CC(C)CN(S(=O)(=O)c2ccc(C(=O)Nc3nnc(-c4ccc(Cl)s4)o3)cc2)C1 (stereo not drawn)	-6.82
Cc1ccc(OCCN2CCN(c3ccc(C)c(C)c3)CC2)cc1	-11.8
COc1ccc(Nc2c(-c3ccccn3)nc3cc(C)ccn23)cc1	-29.5
Cc1ccc(Cn2cc(C(=O)c3ccccc3)c(=O)c3cc(C)ccc32)cc1	-1.98
COc1ccc(NC(=O)[C@H](Cc2ccccc2)N2Cc3ccccc3C2=O)cc1Cl	-1.94
CCCCN(CC)S(=O)(=O)c1ccc(C(=O)Nc2nnc(C)o2)cc1	-1.29
Cc1cccc2nc(-c3ccccn3)c(Nc3ccc4c(c3)OCCO4)n12	-21.6
COc1ccccc1Nc1nc(-c2c(C)nc3sccn23)cs1	-13.5
CCCc1noc(-c2cc(-c3ccncc3)nc3ccccc23)n1	-6.36
CC1CN(S(=O)(=O)c2ccc(C(=O)Nc3nnc(-c4ccc(F)cc4)o3)cc2)CC(C)O1 (stereo not drawn)	-4.35
CCOc1ccc(N2C(=O)c3cccnc3C2Nc2ccc(Br)c(C)c2)cc1 (stereo not drawn)	-10.7
N#Cc1nc(COc2ccc(Br)cc2)oc1N1CCCC1	-27.4
CCOc1ccc(Nc2nc(-c3sc(NC(=O)CC)nc3C)cs2)cc1	-0.641

Source: PubChem BioAssay AID1224903 (Bradner/Qi Labs at DFCI, 2016)
